Measurements taken from US20250326835A1, “USE OF ANTI-CLAUDIN-1 ANTIBODIES TO TREAT CHOLANGIOCARCINOMA” (Alentis Therapeutics AG, priority 2022, published 2025).

Key:
[1] = tested on: extrahepatic CCA cell line (KKU100); assay: Wound healing (cell migration) assay, KKU100 co-cultured with LX2; type: cell-based, human; conditions: KKU100/LX2 co-culture, 20 μg/mL vs isotype control mAb; p=0.02
Description: (§1) Next, the effect of anti-CLDN1 mAb H3L3 on cell migration was assessed in a cell-based wound healing assay using an extrahepatic CCA cell line (KKU100), and an intrahepatic CCA cell line (HuCC-A1).
(§2) In the wound healing assay, 1.5×10^5 CCA cells were co-cultured in 12 well plates (Corning) with LX2 in a ratio of 1:1 to reproduce the stromal architecture seen in CCA tumors. Co-cultures were treated for 3 days with 20 μg/mL isotype control mAb or with 20 μg/mL anti-CLDN1 mAb H3L3. At day 3, wounds were created in the confluent cell monolayer using a pipette tip. Cells were then washed once with PBS to remove debris and covered with 1% FBS media and treated again with 20 μg/mL isotype control mAb or with 20 μg/mL anti-CLDN1 mAb H3L3. Plates were incubated at 37° C. and wounds were imaged at 0, 24 and 48 h. Relative percent of wound closure was measured using ImageJ. Each experiment was independently repeated at least three times.

EGI-1 CCA cells = assay: Western blot signaling studies in EGI-1 and EGI-1/LX2 cell-based models; set-up: species or system human; conditions: EGI-1 cells, 10 μg/mL for 2 days
Description: To corroborate the effect of the anti-CLDN1 mAb H3L3 on CCA signaling observed in vivo (FIGS. 4A-4C), additional signaling studies were performed in CCA cell-based models. The CCA models consisted of 1.5×10^5 EGI-1 CCA cells or a co-culture of CCA EGI-1 with LX2 stellate cells (ratio 1:5) treated with anti-CLDN1 mAb H3L3 (Colpitts et al., 67(4) Gut 736-745 (March 2017)) (10 μg/mL) or isotype control mAb (10 μg/mL) for 2 days. At day 2 post-treatment, cells were stimulated with TNF-α (10 ng/mL) for 24 hours to assess SRC and FAK signaling, or Jagged-1 (50 ng/mL, SRP8012, Sigma-Aldrich) for 24 hours to assess Notch1 signaling. For protein extraction from cell cultures, cells were lysed using Glo lysis buffer (E2661, Promega) supplemented with protease and phosphatase inhibitors (78442, Halt™ Protease and Phosphatase Inhibitor Single-Use Cocktail, Thermo Fisher) for 20 minutes at 4° C. Samples were then centrifuged at 15000 rpm for 10 minutes and the supernatant was collected. Protein quantification was performed using the Bio-Rad DC assay Kit. Gels were prepared following the Biorad TGX gel protocol (BioRad). Gels were transferred using the Biorad trans blot turbo protocol (BioRad) into PVDF membranes. Blocking of the membranes was performed with 5% BSA in TBS-T for 1 hour. The membranes were incubated with anti-SRC Rabbit mAb (#21085, Cell Signaling Technology), Phospho-SRC (Tyr416) Rabbit mAb (#21015, Cell Signaling Technology), anti-Notch1 (D1E11) XP® rabbit mAb (#3608, Cell Signaling Technology), anti-cleaved Notch1 (Val1744) (D3B8) rabbit mAb (#4147, Cell Signaling Technology), anti-FAK rabbit mAb (#3285, Cell Signaling Technology), anti-phospho-FAK (Tyr576/577) rabbit mAb (#3281, Cell Signaling Technology) and anti-β-actin antibody (Sigma) in 5% milk in TBS-T for 2 hours at room temperature. Secondary antibodies used were peroxidase AffiniPure goat anti-rabbit IgG (H+L) mAb (Jackson ImmunoResearch) or ECL mouse IgG, HRP-linked whole Ab (Amersham). Protein immunodetection of the membranes was performed with Clarity ECL Western Blot Substrate (Biorad) in a ChemiDoc MP Imaging System (Biorad). Each experiment was independently repeated at least three times.

[2] = tested on: EGI-1 (extrahepatic CCA) cell line; assay: EGI-1 cell line-derived xenograft (CDX) mouse model, tumor growth and skin ulceration; type: in vivo
From the text: (§3) To assess the in vivo anti-tumorigenic activity of an anti-CLDN1 monoclonal (CLDN1 mAb H3L3) antibody in CCA, anti-CLDN1 mAb's effect on tumor growth was investigated in both intrahepatic CCA and extrahepatic CCA cell line-derived xenograft (CDX) mouse models.
(§4) Non-Obese Diabetic Rag1^−/−IL2Rgc^−/− (NRG) were subcutaneously injected with 5×10^6 cells of HuCC-A1 (intrahepatic CCA) or EGI-1 (extrahepatic CCA) cell line. Non-Obese Diabetic Prkdc^scidIL2Rg^−/− (NSG) were subcutaneously injected with 5×10^6 cells of the HuCC-T1 (intrahepatic CCA) cell line. When the average tumor volumes reached 40-50 mm^3, mice were randomized into two different groups and treated for 6 weeks with the anti-CLDN1 mAb H3L3 (25 mg/kg i.p. once per week), or with vehicle control (PBS i.p. once per week). Tumor growth was monitored using a digital caliper and tumor volume was calculated using the ½ (length×width^2) formula. (FIG. 2A).

[3] = tested on: HuCC-A1 tumor tissue from CDX mice; assay: RNA-seq / gene set enrichment analysis of HuCC-A1 CDX tumor tissue; type: in vivo, mouse; conditions: HuCC-A1 CDX tumors, treated vs control, GSEA
Description: To elucidate the molecular mechanisms underlying the anti-tumor effect provided by anti-CLDN1 mAb (H3L3), RNA-sequencing (RNA-seq) was performed on the HuCC-A1 tumor tissue from CDX mice.
Gene Set Enrichment Analysis (GSEA) was used for unbiased pathway analysis using the Molecular Signature Database (MSigDB v. 7.4). For evaluation of anti-CLDN1 mAb H3L3 treatment effects in the HuCC-A1 CDX mouse model, samples derived from anti-CLDN1 H3L3 mAb treated animals (n=5 mice) were compared to respective control samples of the same model (n=5 mice). Results from GSEA were adjusted for the false discovery rate (FDR). An FDR<0.05 was considered statistically significant.
To further understand and confirm the effect of anti-CLDN1 mAb treatment on the identified oncogenic signaling pathways, gene set enrichment analysis (GSEA) was applied for unbiased pathway analysis using the Molecular Signature Database (MSigDB v. 7.4) in the HuCC-A1 CDX mouse tumors. Samples derived from anti-CLDN1 mAb H3L3 treated animals (n=5 mice) were compared to respective control samples of the same model (n=5 mice). Results from GSEA were adjusted for the false discovery rate (FDR). An FDR<0.05 was considered statistically significant.

[4] = tested on: HuCC-T1 (intrahepatic CCA) cell line; assay: HuCC-T1 cell line-derived xenograft (CDX) mouse model, tumor growth; type: in vivo; conditions: HuCC-T1 CDX NSG mice, 25 mg/kg i.p. once per week for 6 weeks vs PBS; p<0.05
From the text: as §3, §4

[5] = tested on: intrahepatic CCA cell line (HuCC-A1); assay: Wound healing (cell migration) assay, HuCC-A1 co-cultured with LX2; type: cell-based, human; conditions: HuCC-A1/LX2 co-culture, 20 μg/mL vs isotype control mAb; p=0.02
Description: as §1, §2

[6] = Jagged-1 stimulation, vs isotype control mAb
[7] = TNF-α stimulation, vs control-treated cells

B1: anti-CLDN1 mAb H3L3: humanized anti-Claudin-1 monoclonal antibody; heavy chain SEQ ID NO: 11, light chain SEQ ID NO: 12 (VH SEQ 13, VL SEQ 14) (antibody)
heavy: QVQLVESGGGVVQPGRSLRLSCLGSGFSFSSYGMNWVRQAPGKGLEWVASISPSGSYFYYADSVKGRFTISRDNSKNTLYLQMTSLRAEDTAIYYCARLPGFNPPFDHWGQGTLVTVSSASTKGPSVFPLAPSSKSTSGGTAALGCLVKDYFPEPVTVSWNSGALTSGVHTFPAVLQSSGLYSLSSVVTVPSSSLGTQTYICNVNHKPSNTKVDKRV[no letters for human IgG1 Fc]
light: DIQMTQSPSSLSASVGDRVTITCKASQNVGGNVDWYQWKPGKAPKLLIYGASNRYTGVPDRFRGSGSGTDFTLTISSLQPEDVATYYCLQYKNNPWTFGGGTKVEIKRTVAAPSVFIFPPSDEQLKSGTASVVCLLNNFYPREAKVQWKVDNALQSGNSQESVTEQDSKDSTYSLSSTLTLSKADYEKHKVYACEVTHQGLSSPVTKSFNRGEC
modifications: H3L3 Heavy Chain; H3L3 Light Chain
In the case of B1, the “CCA cell migration (wound closure)” value [1] is reported as “significantly and specifically decreased CCA cell migration”, the “Hes1 (downstream target of Notch1)” value (EGI-1 CCA cells; [6]) is reported as “robust decrease” and the “cleaved Notch1” value (EGI-1 CCA cells; [6]) is reported as “robust decrease”. For the same molecule, the FAK phosphorylation (EGI-1 CCA cells; [7]) was “reduced”, the SRC phosphorylation (EGI-1 CCA cells; [7]) was “reduced” and the “tumor growth (tumor volume)” value ([2]; EGI-1 CDX NRG mice, 25 mg/kg i.p. once per week for 6 weeks vs PBS, p<0.05) was “delayed tumor growth”. For the same molecule, the “skin ulceration induced by tumors” value ([2]; EGI-1 CDX model, 25 mg/kg i.p. once per week vs PBS, p<0.01) was “significant reduction of skin ulceration”, the “expression of downstream target and effector genes of YAP/TAZ, FAK, SRC and Notch1 signaling pathways” value [3] was “markedly downregulated” and the “gene sets associated with cell survival, metabolism and differentiation, including EMT” value [3] was “markedly downregulated”. For the same molecule, the “key oncogenic signaling pathways (TNF-α/NF-κB, TGF-β, IL-6/JAK/STAT3, PI3K/Akt/mTOR)” value [3] was “strong suppression”, the “tumor growth (tumor volume)” value [4] was “delayed tumor growth” and the “CCA cell migration (wound closure)” value [5] was “significantly and specifically decreased CCA cell migration”.
